What all share (assay): Primary Screen for Target Class Profiling of Small Molecule Inhibitors of Methyltransferases
Experiment [1] addresses Glycine N-methyltransferase (Homo sapiens) (UniProt Q14749). As to conditions: purified enzyme, MTase-Glo SAH luminescence; measured here: GNMT inhibition; at 40 µM; stronger effect = lower value. The method in brief:
(§1)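 Each enzyme was reacted with SAM and its substrate, with compounds tested once at 40 uM; SAH formed was read by MTase-Glo luminescence.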

The target of experiment [2] is Guanidinoacetate N-methyltransferase (Homo sapiens) (UniProt Q14353). The settings on record: purified enzyme, MTase-Glo SAH luminescence; measured here: GAMT inhibition; at 40 µM; stronger effect = lower value. The method in brief: as §1
For experiment [3], the target named is Histamine N-methyltransferase (Homo sapiens) (UniProt P50135). The settings on record: purified enzyme, MTase-Glo SAH luminescence; measured here: HNMT inhibition; at 40 µM; stronger effect = lower value. The method in brief:
as §1

For experiment [4], the target named is Nicotinamide N-methyltransferase (Homo sapiens) (UniProt P40261). As to conditions: purified enzyme, MTase-Glo SAH luminescence; measured here: NNMT inhibition; at 40 µM; stronger effect = lower value. The method in brief: as §1
In experiment [5] the target is Phenylethanolamine N-methyltransferase (Homo sapiens) (UniProt P11086). As to conditions: purified enzyme, MTase-Glo SAH luminescence; measured here: PNMT inhibition; at 40 µM; stronger effect = lower value. The method in brief: as §1

The other results are listed elsewhere or left out. These are further read-outs of the screen, such as a control signal, another cell line or another target. No call is given for them.
On the % scale 0 is the no-effect control and ±100 the full control effect.

Regarding `CCc1cc2c(cc3n2CC(C)(C(=O)NC2CCCCC2)N(Cc2ccc(C)cc2)C3=O)s1` (stereo not given), the activity change, negative = inhibition is -5.17% in experiment [1]; -0.634% in experiment [2]; 1.21% in experiment [3]; -0.035% in experiment [4]; -3.76% in experiment [5].

Regarding `Nc1nc(NCCNc2ncc(-n3ccnc3)c(-c3ccc(Cl)cc3Cl)n2)ccc1[N+](=O)[O-]`, the activity change, negative = inhibition in experiment [1] is -2.09%; in experiment [2], 0.546%; in experiment [3], 4.22%; in experiment [4], -53.4%; in experiment [5], -1.55%.

Take `Cn1c(=O)c2ccc(C(=O)NC3CCCC3)cc2n2c(=O)n(Cc3cccc(F)c3)nc12`: the activity change, negative = inhibition in experiment [1] was -0.383%; in experiment [2], 1.99%; in experiment [3], -7.38%; in experiment [4], -2.99%; in experiment [5], -0.452%.

For the compound `O=C1N(c2ccccc2)c2ccccc2C12CCN([S+](=O)([O-])c1cccc(C(F)(F)F)c1)C2` (stereo not given), the activity change, negative = inhibition was -6.07% in experiment [1]; -5.02% in experiment [2]; -2.39% in experiment [3]; -10.3% in experiment [4]; 8.26% in experiment [5].

As to `CC1CCC2(C(=O)OC3OC(COC4OC(CO)C(O)C(O)C4O)C(O)C(O)C3O)CCC3(C)C(=CCC4C5(C)CCC(O)C(C)(C(=O)O)C5CCC43C)C2C1(C)O` (stereo not given), the activity change, negative = inhibition in experiment [1] was 3.88%; in experiment [2], 1.4%; in experiment [3] it was 4.97%; in experiment [4], -11.2%; in experiment [5], -4.74%.

As to `CC(C)S(=O)(=O)N[C@H]1CCOC[C@@H]1c1ccc(-c2ccc(C#N)s2)cc1`, the activity change, negative = inhibition in experiment [1] is -0.646%; in experiment [2], -3.49%; in experiment [3], 9.72%; in experiment [4] it was -10.6%; in experiment [5], 1.94%.

Consider `CCCn1ncc(CN2CCC(Cc3cccc(C(F)(F)F)c3)(C(=O)OCC)CC2)c1C`, for which the activity change, negative = inhibition is 0.547% in experiment [1]; 1.24% in experiment [2]; -3.69% in experiment [3]; -14% in experiment [4]; 1.12% in experiment [5].

With `CC1C(=O)OCC2=CCN3CCC(OC(=O)C(C)(O)C1(C)O)C23` (stereo not given), the activity change, negative = inhibition in experiment [1] is -2.18%; in experiment [2], -2.41%; in experiment [3], 4.89%; in experiment [4], -12.2%; in experiment [5], -10.1%.

With `COc1ccc(-c2cc3n(n2)CC(C)(C(=O)NCc2ccccc2)N(CCCOC(C)C)C3=O)cc1` (stereo not given), the activity change, negative = inhibition in experiment [1] is 1.42%; in experiment [2], 1.15%; in experiment [3], 5.23%; in experiment [4] it was 2.83%; in experiment [5] it was -1.78%.

With `CC1(C)[C@H]2CC[C@@H](CNC(=O)c3cncc(Br)c3)[C@@H]1C2`, the activity change, negative = inhibition in experiment [1] was -4.12%; in experiment [2], 3.77%; in experiment [3], -1.18%; in experiment [4] it was -11.3%; in experiment [5], -7.84%.

Take `CC1(C(=O)NC2CCCCCCC2)Cn2c(cc3sccc32)C(=O)N1Cc1cccnc1` (stereo not given): the activity change, negative = inhibition in experiment [1] is -15.1%; in experiment [2], -0.261%; in experiment [3] it was -3.82%; in experiment [4], -4.15%; in experiment [5], -3.8%.

In the case of `CCS(=O)(=O)N1CC(CC#N)(n2cc(-c3ncnc4[nH]ccc34)cn2)C1`, the activity change, negative = inhibition in experiment [1] was 3.76%; in experiment [2] it was 6.68%; in experiment [3], 7.84%; in experiment [4] it was -14.6%; in experiment [5], -13%.

With `CC(=O)Nc1c2n(c3ccc(C)cc13)CC(C)(C(=O)NC1CCCCCC1)N(C1CCCC1)C2=O` (stereo not given), the activity change, negative = inhibition is -2.86% in experiment [1]; -0.188% in experiment [2]; 1.42% in experiment [3]; -1.16% in experiment [4]; -4.14% in experiment [5].

`Cc1noc(C)c1C(=O)N1CCC2(CC1)CN(C(=O)Cc1cccc(Cl)c1)CCO2`: the activity change, negative = inhibition was -2.19% in experiment [1]; -0.348% in experiment [2]; 1.68% in experiment [3]; -4.95% in experiment [4]; -5.29% in experiment [5].

Regarding `CCCn1c(=O)c2ccc(C(=O)NC3CCCCC3)cc2n2c(=O)n(CC(=O)NC(C)(C)C)nc12`, the activity change, negative = inhibition in experiment [1] is 5.08%; in experiment [2], 1.51%; in experiment [3], 11.4%; in experiment [4] it was 6.09%; in experiment [5], 7.42%.

Consider `CSC(=N)N`, for which the activity change, negative = inhibition was 5.32% in experiment [1]; 11% in experiment [2]; 0.337% in experiment [3]; -5.27% in experiment [4]; 6.39% in experiment [5].

Consider `CNC(=O)[C@@H](C1CC1)N1CCC[C@H]1C(=O)N1CCC(C)CC1`, for which the activity change, negative = inhibition was -3.72% in experiment [1]; -7.05% in experiment [2]; -1.88% in experiment [3]; -11.8% in experiment [4]; -4.09% in experiment [5].

Take `COc1ccc(C(=O)OC2C3C=COC(OC4OC(CO)C(O)C(O)C4O)C3C3(CO)OC23)cc1OC` (stereo not given): the activity change, negative = inhibition in experiment [1] is 0%; in experiment [2], -1.45%; in experiment [3], -5.85%; in experiment [4] it was -14.2%; in experiment [5], 1.23%.

In the case of `CC(C)C1c2cccn2CCN1C(=O)Nc1cccc(C(F)(F)F)c1` (stereo not given), the activity change, negative = inhibition in experiment [1] is -2.71%; in experiment [2], 4.53%; in experiment [3], -5.89%; in experiment [4], -6.17%; in experiment [5], -0.296%.

For the compound `CC(C)CCn1c(=O)c2ccc(C(=O)NCC(C)C)cc2n2c(=O)n(Cc3c(F)cccc3Cl)nc12`, the activity change, negative = inhibition in experiment [1] was 5.49%; in experiment [2] it was 0.617%; in experiment [3], 7.4%; in experiment [4], 4.78%; in experiment [5], 5.21%.

In the case of `CCN1C(=O)c2c(C(=O)NCc3cccc(F)c3)ncn2CC1(C)C(=O)NC1CCCC1` (stereo not given), the activity change, negative = inhibition is -1.07% in experiment [1]; 2.83% in experiment [2]; 6.77% in experiment [3]; 4.16% in experiment [4]; 2.65% in experiment [5].

As for `CCCn1c(=O)c2ccccc2n2c(SCc3ccccc3)nnc12`, the activity change, negative = inhibition in experiment [1] is -17.9%; in experiment [2] it was 3.62%; in experiment [3] it was 4.33%; in experiment [4], -11.7%; in experiment [5], 1.91%.

For `CCC(C)NC(=O)c1ccc2c(=O)n(CCC(C)C)c3n[nH]c(=O)n3c2c1` (stereo not given), the activity change, negative = inhibition in experiment [1] was determined as 2.63%; in experiment [2], 0%; in experiment [3] it was 9.35%; in experiment [4], 11.5%; in experiment [5], 1.13%.

On to `COCCN(C)Cc1cn(Cc2ccccc2)nc1-c1ccc2c(c1)OCO2`, for which the activity change, negative = inhibition in experiment [1] was -6.66%; in experiment [2] it was -11.2%; in experiment [3] it was -4.92%; in experiment [4] it was -17.6%; in experiment [5], -14%.

As to `COc1cccc2c(NCc3ccccc3)nc(-n3c(N)nc4ccccc43)nc12`, the activity change, negative = inhibition in experiment [1] was -1.79%; in experiment [2], -6.82%; in experiment [3], -2.76%; in experiment [4], -32.8%; in experiment [5], -9.46%.

Regarding `CC1(C(=O)NC2CCCCC2)Cn2c(cc3occc32)C(=O)N1C1CCCCC1` (stereo not given), the activity change, negative = inhibition in experiment [1] worked out at 5.91%; in experiment [2], 1.45%; in experiment [3], 8.21%; in experiment [4], 9.26%; in experiment [5] it was 2.88%.

On to `CCc1nc(CN2CCC(N3CCCC(C(=O)NCc4ccccn4)C3)CC2)no1` (stereo not given), for which the activity change, negative = inhibition in experiment [1] was -1.5%; in experiment [2], 2.17%; in experiment [3] it was 0.554%; in experiment [4] it was 2.18%; in experiment [5] it was -10.5%.

For `Cc1nc2c(-c3cnc(N)nc3)nc(N3CCOCC3)nc2n1C(C)C`, the activity change, negative = inhibition in experiment [1] was -10.7%; in experiment [2] it was 3.22%; in experiment [3] it was -11.7%; in experiment [4] it was -18.8%; in experiment [5], -2.25%.

With `Nc1nccc(Oc2ccc(NC(=O)c3c[nH]cc(-c4ccc(F)cc4)c3=O)cc2F)c1Cl`, the activity change, negative = inhibition in experiment [1] was -11.2%; in experiment [2] it was -21.6%; in experiment [3], -56.6%; in experiment [4] it was -79%; in experiment [5], -18.3%.

Regarding `O=C(NC1CCCCC1)c1ccc2c(=O)n(Cc3ccccc3)c3nn(Cc4ccccc4)c(=O)n3c2c1`, the activity change, negative = inhibition in experiment [1] is -1.48%; in experiment [2], -0.363%; in experiment [3], 1.62%; in experiment [4], -7.52%; in experiment [5] it was -3.71%.

For the compound `CC1=C(CO)C2(C)CCCC(C)(C)C2C(O)C1O` (stereo not given), the activity change, negative = inhibition in experiment [1] was 1.1%; in experiment [2], -4.7%; in experiment [3], 8.34%; in experiment [4] it was -16.1%; in experiment [5], 5.19%.

As to `Cc1cnc(CCNC(=O)c2n[nH]c(=O)c3ccccc23)n1C1CCCCC1`, the activity change, negative = inhibition in experiment [1] was -10.3%; in experiment [2], -3.15%; in experiment [3], -74.1%; in experiment [4], -11.4%; in experiment [5] it was -0.743%.

Consider `CC1CCCCC1NC(=O)C1(C)Cn2c(cc3sccc32)C(=O)N1CCCc1ccccc1` (stereo not given), for which the activity change, negative = inhibition is -0.841% in experiment [1]; 0% in experiment [2]; 1.27% in experiment [3]; -2.65% in experiment [4]; 1.6% in experiment [5].

On to `CN1CCC(N2CCC[C@H]2c2nc(-c3ccc(OC4CCCCC4)nc3)no2)CC1`, for which the activity change, negative = inhibition in experiment [1] was -6.32%; in experiment [2], -2.47%; in experiment [3] it was -23.8%; in experiment [4] it was -9.95%; in experiment [5], 2.75%.

Consider `CCC(C)NC(=O)c1ccc2c(=O)nc3c(-c4cccc(C)c4)n[nH]n3c2c1` (stereo not given), for which the activity change, negative = inhibition in experiment [1] was -11.4%; in experiment [2], 2.82%; in experiment [3], -3.7%; in experiment [4], -1.02%; in experiment [5], -8.62%.

As for `O=C(NCCc1ccc(F)cc1)c1cc(-c2ccccc2)c2nncn2n1`, the activity change, negative = inhibition in experiment [1] was -9.51%; in experiment [2], -4.64%; in experiment [3], -6.67%; in experiment [4], -8.17%; in experiment [5] it was -3.43%.

Take `CC(C)CCNC(=O)c1cc2n(n1)CC(C)(C(=O)NC1CCCCCC1)N(C)C2=O` (stereo not given): the activity change, negative = inhibition is 0.917% in experiment [1]; 0% in experiment [2]; 2.97% in experiment [3]; -8.19% in experiment [4]; -3.1% in experiment [5].

In the case of `CCC(c1cnn(C)c1)n1ccnc1-c1cc(F)c(OC)c(Cl)c1` (stereo not given), the activity change, negative = inhibition in experiment [1] is -1.92%; in experiment [2] it was -0.352%; in experiment [3], -0.956%; in experiment [4] it was -6.14%; in experiment [5] it was 11.7%.

(Values after PubChem BioAssay AID1745853 (National Center for Advancing Translational Sciences (NCATS), 2022).)
